# Out of some 220,000 compounds screened, about 5,700 (2.6%) were called active. The shares of active, inactive and inconclusive entries below differ from those in the screen. Calls follow the shape of the dose curve; as a rule, active = well fitted inhibition curve with a large enough effect; inconclusive = small, poorly fitted or top-dose-only effect; inactive = no such curve, though single readings can be large or run the other way. A potency beside an inconclusive call is a rough fit, not a confirmed value.
# Biological target: Lysine-specific demethylase 5B (Homo sapiens) (UniProt Q9UGL1)
# Chain of UniProt Q9UGL1 (Q9UGL1 whole entry, looked up): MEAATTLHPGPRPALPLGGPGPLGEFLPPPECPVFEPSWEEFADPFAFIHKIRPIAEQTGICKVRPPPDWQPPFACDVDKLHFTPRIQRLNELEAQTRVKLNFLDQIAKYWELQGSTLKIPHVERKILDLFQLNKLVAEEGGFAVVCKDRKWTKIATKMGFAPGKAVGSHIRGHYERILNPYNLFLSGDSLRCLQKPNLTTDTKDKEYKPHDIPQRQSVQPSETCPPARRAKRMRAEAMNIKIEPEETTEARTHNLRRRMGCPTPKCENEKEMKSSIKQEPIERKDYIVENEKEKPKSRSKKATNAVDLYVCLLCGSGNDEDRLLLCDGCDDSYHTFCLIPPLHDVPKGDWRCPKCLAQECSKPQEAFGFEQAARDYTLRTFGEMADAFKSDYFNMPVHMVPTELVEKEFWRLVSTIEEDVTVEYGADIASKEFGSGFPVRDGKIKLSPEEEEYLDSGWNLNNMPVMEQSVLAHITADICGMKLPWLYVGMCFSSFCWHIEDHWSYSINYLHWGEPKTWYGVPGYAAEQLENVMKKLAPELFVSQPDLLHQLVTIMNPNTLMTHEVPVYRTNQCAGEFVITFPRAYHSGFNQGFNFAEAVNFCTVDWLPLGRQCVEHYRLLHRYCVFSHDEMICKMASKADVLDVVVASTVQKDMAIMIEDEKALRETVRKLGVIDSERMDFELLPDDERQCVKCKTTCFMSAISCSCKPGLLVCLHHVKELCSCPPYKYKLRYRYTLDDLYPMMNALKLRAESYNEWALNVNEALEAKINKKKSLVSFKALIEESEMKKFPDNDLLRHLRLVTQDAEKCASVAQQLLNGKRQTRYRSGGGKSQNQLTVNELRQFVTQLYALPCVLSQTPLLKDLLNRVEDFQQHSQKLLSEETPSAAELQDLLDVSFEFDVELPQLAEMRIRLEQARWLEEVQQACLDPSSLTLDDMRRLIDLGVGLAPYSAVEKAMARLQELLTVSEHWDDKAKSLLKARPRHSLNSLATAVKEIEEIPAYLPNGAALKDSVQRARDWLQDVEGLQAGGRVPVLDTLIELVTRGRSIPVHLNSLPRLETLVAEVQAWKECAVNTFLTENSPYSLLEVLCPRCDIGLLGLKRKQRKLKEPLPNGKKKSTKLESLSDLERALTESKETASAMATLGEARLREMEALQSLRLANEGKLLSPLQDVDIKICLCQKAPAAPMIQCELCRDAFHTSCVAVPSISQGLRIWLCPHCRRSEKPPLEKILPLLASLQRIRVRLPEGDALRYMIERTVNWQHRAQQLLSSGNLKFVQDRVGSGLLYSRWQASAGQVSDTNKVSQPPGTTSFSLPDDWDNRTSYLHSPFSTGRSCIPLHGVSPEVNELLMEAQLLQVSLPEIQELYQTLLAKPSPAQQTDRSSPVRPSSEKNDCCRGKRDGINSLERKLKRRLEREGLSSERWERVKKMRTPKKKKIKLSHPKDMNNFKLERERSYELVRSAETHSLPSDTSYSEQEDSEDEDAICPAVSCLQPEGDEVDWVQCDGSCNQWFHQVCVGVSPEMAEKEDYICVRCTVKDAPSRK
# Assay: Primary screen for KDM5B Histone Demethylases FDH-coupled qHTS; also: nearly all actives have a fitted effect of over 70% in size; as to activity change, negative = inhibition: 0% is about no effect
# Conditions: FDH-coupled NADH fluorescence (FDH is formaldehyde dehydrogenase); activity change, negative = inhibition: at 57.7 µM (top of the series) unless noted
# Summary of the method: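 KDM5BΔAP (200 nM final) in 50 mM HEPES pH 7.5, 0.01% Tween-20 was preincubated 10 min at RT with compound over a concentration range. Substrate mix (H3K4me3 12.5 µM, α-KG 25 µM, Fe²⁺, ascorbate, NAD⁺, FDH) was added, and NADH fluorescence change over 30 min gave dose-response curves.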
# Potency is read from the fitted curve at half-maximal effect; tags tell the direction and shape of the fitted curve.
SMILES,"activity change, negative = inhibition",Potency
CCC(=O)N1CCc2cc(Br)cc(S(=O)(=O)NCCc3cccc(C)c3)c21,inconclusive: -30.3% [inhibitor],
O=C(O)/C=C/c1cc(Cl)ccc1OCc1ccccc1,,"inconclusive: 25.1 µM [inhibitor, partial curve, poor fit]"
Cc1ccc(NC(=O)N2CCC(CCNC(=O)c3ccsc3)CC2)cc1,inactive: 23.8%,
CC1(CNc2ccccc2)COc2ccc(C(=O)NCCOc3ccccc3)cc2N1 (stereo not drawn),,active: 28.2 µM
Cc1cc(C)nc(-n2nc(C)c3c2N(Cc2ccccc2F)C(=O)CC3c2ccc(Cl)cc2)n1 (stereo not drawn),,"inconclusive: 15.8 µM [inhibitor, partial curve, poor fit]"
CC(C)(C)c1[nH]c2ccccc2c1C=O,inactive: 26%,
CC1CCCC(NC(=O)/C=C/c2ccc3c(c2)CCO3)C1C (stereo not drawn),inactive: -29.9%,
CCOC(=O)c1sc2ccccc2c1S(=O)(=O)NCc1ccccc1OC,,"inconclusive: 35.5 µM [inhibitor, single point]"
CCCc1cc(=O)oc2cc(OC(C)C(=O)NCc3ccccn3)ccc12 (stereo not drawn),,"inconclusive: 31.6 µM [inhibitor, partial curve, poor fit]"
Cc1cccc(CCN2CCc3[nH]cnc3C2C(=O)O)n1 (stereo not drawn),,"inconclusive: 22.4 µM [inhibitor, single point]"
COc1ccc(CCNCc2cc(C)n(-c3ccc(OC)cc3)c2C)cc1,,"inconclusive: 14.1 µM [inhibitor, partial curve, poor fit]"
COc1ccccc1CNC(=O)Cc1csc2nc(-c3ccc(F)cc3)cn12,inactive: -13.8%,
O=S(=O)(c1ccc(Cl)cc1)c1nc(-c2cccs2)oc1N1CCCCC1,,"inconclusive: 15.8 µM [inhibitor, partial curve, poor fit]"
O=C(NCCc1ccc(Cl)cc1)C1CCc2nnc(-c3ccc(Cl)nc3)n21 (stereo not drawn),inactive: 14.4% [at 115 µM],
Cc1ccc(CNc2ncncc2-c2nc(-c3ccccc3)no2)cc1,,"inconclusive: 25.1 µM [inhibitor, single point]"
Cc1nn(-c2nc3c(c(=O)n(Cc4ccccc4Cl)c(=O)n3C)n2C)c(C)c1C,inactive: -1.81%,
CC(C)CCn1nc(C(=O)Nc2nc(-c3ccc(F)cc3)cs2)c2ccccc2c1=O,inactive: 8.93%,
CCC1CN(C(=O)N2CCC(C(=O)NCCc3ccc(OC)cc3OC)CC2)c2cc(C)ccc2O1 (stereo not drawn),inconclusive: -31.3% [inhibitor],
Cc1cccc(C)c1-n1ncc(C(=O)NCCCN2CCC(C)CC2)c1C1CCN(C(=O)OC(C)(C)C)CC1,,"inconclusive: 22.4 µM [inhibitor, single point]"
C=CCNC(=O)c1ccnc2[nH]ccc12,,active: 126 µM
Cc1cccc(/C=N/NC(=O)Cn2nnnc2N)n1,,"inconclusive: 39.8 µM [inhibitor, single point]"
Cc1cc(NC(=O)c2sc3ccccc3c2O)no1,,"inconclusive: 28.2 µM [inhibitor, partial curve, poor fit]"
COc1ccc(CNC(=O)Cc2c(C)c3cc(Cl)c(O)cc3oc2=O)cc1,inactive: -2010%,

SMILES,"activity change, negative = inhibition",Potency
Cc1noc(-c2cn(C3CCCN(C(=O)c4cccc5[nH]ccc45)C3)nn2)n1 (stereo not drawn),,active: 20 µM
COc1cccc(CN2CCN(C(=O)c3cnc4ccccn4c3=O)CC2=O)c1,,active: 28.2 µM
CC(NC(=O)c1ccco1)C(=O)N1CCC(c2c[nH]c3ccccc23)CC1 (stereo not drawn),inactive: 10.7%,
CCc1ccccc1NC(=O)Cc1c(C)nc2nc(-c3cccs3)nn2c1C,,"inconclusive: 1.78 µM [inhibitor, partial curve, poor fit]"
COc1ccccc1CC(=O)N1CCC2(CC1)N=C(c1ccc(Cl)cc1)NO2,,"inconclusive: 31.6 µM [inhibitor, partial curve, poor fit]"
COc1cc(-c2nc3sccn3c2Nc2c(C)cccc2C)ccc1O,,"inconclusive: 7.94 µM [inhibitor, partial curve, poor fit]"
Cc1cc(C(=O)N[C@@H]2CN(Cc3ccccn3)C[C@H]2CN(C)C)n[nH]1,,"inconclusive: 31.6 µM [inhibitor, partial curve, poor fit]"
CCCSC1=C(C#N)C(c2ccc(C)cc2)CC(=O)N1 (stereo not drawn),inactive: -21.2%,
Cc1cn2nnc(C(=O)NC3CCc4ccccc43)c2c(=O)[nH]1 (stereo not drawn),,"inconclusive: 15.8 µM [inhibitor, single point]"
O=C(NC1CC1)c1cccc(NC(=O)c2cccc3cccnc23)c1,inactive: 2%,
COc1ccccc1-c1[nH]nc2ncc(-c3ccccc3F)nc12,,active: 35.5 µM
COc1cccc(-c2cc3c(ccn3C)c(C(=O)NCCc3cnc[nH]3)n2)c1OC,,active: 39.8 µM
COCCNC(=O)c1coc(CN2CCN(C/C=C/c3ccccc3)CC2)n1,,"inconclusive: 3.16 µM [inhibitor, full curve]"
COc1ccc2c(ccn2CC(=O)NCc2ccccc2OC)c1,inactive: 6.66%,
CCN1C(C(=O)c2ccccc2)=C(OC(=O)COc2ccc(C)cc2)c2ccccc2S1(=O)=O,,"inconclusive: 11.2 µM [inhibitor, partial curve, poor fit]"
N=C1/C(=C\c2ccc(-c3ccc(C(=O)O)cc3)o2)C(=O)N=C2SC=C(c3ccccc3)N12,,"inconclusive: 14.1 µM [inhibitor, partial curve, poor fit]"
CC(c1ccccc1)N(C)C(=O)Cc1c[nH]c2ccccc12 (stereo not drawn),inactive: -1.62%,
CCc1noc2nc(C)nc(N3CCCC(C(=O)NCCc4ccc(Cl)cc4)C3)c12 (stereo not drawn),inactive: 2.21%,
NC(=S)Nc1ccccc1Br,,"inconclusive: 28.2 µM [inhibitor, single point]"
CC(C)Cc1nc2nccc(-c3ccccn3)n2n1,,"inconclusive: 14.1 µM [inhibitor, partial curve, poor fit]"
COc1ccc2c(c1)c1c(c(=O)n(Cc3ccccc3)c(=O)n1CC(=O)Nc1ccccc1OC)n2C,,"inconclusive: 25.1 µM [inhibitor, partial curve, poor fit]"
CCn1c(C)c(C)c2cc(C(=O)NCC(C)c3ccccc3)ccc21 (stereo not drawn),,"inconclusive: 25.1 µM [inhibitor, partial curve, poor fit]"
Cc1nc2ccc(C(=O)NCC3CN(CC(C)C)CCO3)cc2nc1C (stereo not drawn),inactive: -19.6%,

SMILES,"activity change, negative = inhibition",Potency
CSc1cccc(NC(=O)c2ccc3c(c2)N(C)C2CCCCCN2C3=O)c1 (stereo not drawn),,"inconclusive: 35.5 µM [inhibitor, partial curve, poor fit]"
O=C(C1CC1)N1CCC2(CC1)CCN(CCc1ccccc1)c1ccccc1O2,inactive: -24.6%,
CCc1ccccc1Nc1nn2c(=O)c3ccc(C(=O)NCCC4=CCCCC4)cc3nc2s1,,"inconclusive: 3.55 µM [inhibitor, partial curve, poor fit]"
Cc1ccc(Cn2c(-c3ccc(F)cc3)nc(C)c(CCO)c2=O)cc1C,,"inconclusive: 5.62 µM [inhibitor, partial curve]"
CCOc1ccccc1NC(=O)CSc1nc2ccccc2c(=O)n1CC1CCCO1 (stereo not drawn),,"inconclusive: 17.8 µM [inhibitor, partial curve, poor fit]"
O=C(NCCc1ccccc1)c1cc(Nc2ccccc2)nc2ccccc12,,"inconclusive: 35.5 µM [inhibitor, single point]"
O=C(Cc1c[nH]c2ccccc12)N1CCC2(CC1)CC(CO)N(C(=O)c1ccccc1)C2 (stereo not drawn),inactive: 15.8%,
CN(C)S(=O)(=O)N1CCCC(CCc2cccc(F)c2)C1 (stereo not drawn),inactive: 11.3%,
COc1ccc(CCCc2nnc(SCC(=O)Nc3cccc(F)c3C)o2)cc1,,"inconclusive: 1.26 µM [inhibitor, full curve, poor fit]"
CCOC(=O)C1CCCN(C(=O)c2ccc3c(c2)sc2nc(-c4cccc(OC)c4)cn23)C1 (stereo not drawn),,"inconclusive: 10 µM [inhibitor, partial curve, poor fit]"
CS(=O)(=O)N1CCc2ccc(C(=O)Nc3ccc(Oc4ccccc4)cc3)cc21,,"inconclusive: 31.6 µM [inhibitor, single point]"
Nc1ccc(CN2CCCC3(Cc4ccccc4CNC3=O)C2)cc1 (stereo not drawn),,"inconclusive: 56.2 µM [inhibitor, partial curve, poor fit]"
O=C1CC(Cc2ccc(Br)cc2)C(=O)N1c1ccc2ccccc2n1 (stereo not drawn),inactive: 4.1%,
CC1CCc2c(sc(NC(=O)Cc3ccccc3)c2C(=O)Nc2ccc(Cl)cc2)C1 (stereo not drawn),,"inconclusive: 28.2 µM [inhibitor, partial curve, poor fit]"
CCCN1CCC2(CCN(C(=O)c3cccc(Cl)c3)CC2)Oc2ccccc21,,"inconclusive: 14.1 µM [inhibitor, partial curve]"
COc1ccc(CN2C[C@H](O)C[C@H]2c2nc(-c3ccc(C)c(F)c3)no2)cc1,,"inconclusive: 25.1 µM [inhibitor, partial curve, poor fit]"
Cc1ccc(-c2ccc3nnc(CNC(=O)c4c(F)cccc4F)n3n2)cc1,,active: 25.1 µM
CC(C)(Oc1nn(CC2CC2)c2ccc(CN3CCCC3)cc12)C(=O)NCC(F)(F)F,,active: 35.5 µM
CCc1ccccc1NC(=O)N1CCOc2ccccc21,,"inconclusive: 2 µM [inhibitor, partial curve, poor fit]"
CCCc1cc(=O)oc2cc(OC(C)C(=O)NCc3ccc(S(N)(=O)=O)cc3)ccc12 (stereo not drawn),,"inconclusive: 25.1 µM [inhibitor, single point]"
O=C(Cn1ncc2c([nH]c3ccccc32)c1=O)NCCCN1CCN(c2ccc(F)cc2)CC1,,"inconclusive: 44.7 µM [inhibitor, single point]"
CCCOc1ccc(C2C(=O)N(C3CCCCCC3)CC(=O)N2Cc2ccccc2OC)cc1OC (stereo not drawn),,"inconclusive: 39.8 µM [inhibitor, single point]"

# From PubChem BioAssay AID1347165 (National Center for Advancing Translational Sciences (NCATS), 2019)
